In all, about 310,000 compounds went through this assay and about 2,200 (0.71%) showed an effect of 50% or more. Effects have a minus sign here. Some of the results follow.
These compounds were tested against human ether-à-go-go-related gene (hERG) potassium channel (human, UniProt Q12809) (assay: primary screen, population patch clamp on CHO cells stably expressing hERG).
Sequence of human ether-à-go-go-related gene (hERG) potassium channel (Q12809 whole entry, looked up): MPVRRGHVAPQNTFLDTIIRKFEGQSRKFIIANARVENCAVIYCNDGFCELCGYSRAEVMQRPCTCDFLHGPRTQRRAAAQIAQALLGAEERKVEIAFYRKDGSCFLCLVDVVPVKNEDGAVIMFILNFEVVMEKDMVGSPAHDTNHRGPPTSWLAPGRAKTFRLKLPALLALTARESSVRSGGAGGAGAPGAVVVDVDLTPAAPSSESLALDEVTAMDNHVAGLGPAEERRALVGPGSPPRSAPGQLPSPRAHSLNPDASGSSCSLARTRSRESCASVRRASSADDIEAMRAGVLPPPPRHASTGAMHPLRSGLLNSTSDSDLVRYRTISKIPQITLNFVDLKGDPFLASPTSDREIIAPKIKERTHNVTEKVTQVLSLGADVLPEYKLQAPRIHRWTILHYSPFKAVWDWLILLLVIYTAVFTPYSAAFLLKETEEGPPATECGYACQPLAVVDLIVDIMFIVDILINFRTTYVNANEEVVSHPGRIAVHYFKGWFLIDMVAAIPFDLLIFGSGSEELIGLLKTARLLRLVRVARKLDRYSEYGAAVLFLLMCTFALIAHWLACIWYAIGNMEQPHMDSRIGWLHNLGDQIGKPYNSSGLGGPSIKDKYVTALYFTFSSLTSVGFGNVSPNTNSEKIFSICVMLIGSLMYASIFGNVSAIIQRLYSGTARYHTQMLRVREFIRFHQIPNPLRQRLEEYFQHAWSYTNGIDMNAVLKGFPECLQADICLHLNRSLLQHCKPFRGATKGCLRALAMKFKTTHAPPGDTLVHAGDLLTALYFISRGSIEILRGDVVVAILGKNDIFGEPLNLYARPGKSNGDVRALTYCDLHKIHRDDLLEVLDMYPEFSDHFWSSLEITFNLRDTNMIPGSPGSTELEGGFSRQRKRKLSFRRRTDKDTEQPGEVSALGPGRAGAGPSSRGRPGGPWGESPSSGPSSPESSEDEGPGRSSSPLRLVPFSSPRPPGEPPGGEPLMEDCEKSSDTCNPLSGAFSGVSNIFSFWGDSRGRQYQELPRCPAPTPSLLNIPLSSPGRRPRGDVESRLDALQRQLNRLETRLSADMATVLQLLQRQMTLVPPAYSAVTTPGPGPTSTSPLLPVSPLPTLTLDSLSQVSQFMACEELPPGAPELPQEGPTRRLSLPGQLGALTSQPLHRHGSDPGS

Compound	hERG current change (%, negative = inhibition) at 1uM
CCOc1ccc(CN2CCC(C(=O)N3CCN(c4ccccc4F)CC3)CC2)cc1OC.O=C(O)C(=O)O	-20.7%
Clc1ccc(Cc2nn3c(Cn4nnc5ccccc54)nnc3s2)cc1	-7.82%
O=C(COC(=O)c1ccc(Cl)nc1)NC(=O)c1ccccc1	6.02%
O=C(CN1CCCCC1)N1CCN(S(=O)(=O)c2ccccc2)C1	14.3%
CCN1C(=O)c2ccccc2S(=O)c2ccc(C(=O)N3CCOCC3)cc21 (centres unmarked)	6.01%
O=C(CN1C(=O)NC2(CCCC2)C1=O)Nc1cc(Cl)ccc1N1CCOCC1	6.96%
NC(=O)Cc1ccc(Nc2nnc(-c3ccccc3)c3ccccc23)cc1	7.76%
O=C(c1cccnc1)N1CCN(S(=O)(=O)c2cccs2)CC1	-29.5%
O=C(/C=C/c1ccncc1)c1ccc(NC(=O)c2ccccc2F)cc1	10.7%
O=C(NCc1cccnc1)c1cn(-c2ccccc2)nc1-c1cccs1	3.42%
N#Cc1ccc(OCC(O)CS(=O)(=O)c2ccc(F)cc2)cc1 (centres unmarked)	-3.69%
Cc1noc(C)c1C(=O)Nc1ccc(N(C)C)cc1	17.6%
COc1ccc(C(C)(C)C)cc1NC(=O)Nc1ccc2c(c1)OCO2	22.5%
O=C(NCCCN=C1NS(=O)(=O)c2ccccc21)c1ccco1	1.64%
COc1ccc(/C=N/N2CCN(c3ccc(Cl)cc3)CC2)cc1O	11.8%
Cc1cc([N+](=O)[O-])nn1Cc1noc(C(=O)NCc2ccc3c(c2)OCO3)n1	12%
CC(C)C[C@H](N)c1cn([C@@H](Cc2cc3ccccc3[nH]2)C(=O)N2CCNCC2)nn1.Cl	12.8%
COC(=O)C1CCN(C(=O)CC(NC(=O)C(F)(F)F)c2cccs2)CC1 (centres unmarked)	4.19%
COc1cc(COC(=O)Oc2ccc(CNC(C)=O)cc2OC)c([N+](=O)[O-])cc1OC	9.74%
Cc1oc2cc(O)cc(O)c2c(=O)c1-c1ccc2c(c1)OCCCO2	13.7%
[O-][n+]1c2ccccc2[n+]([O-])c2cc(O)ccc21	7.15%
NS(=O)(=O)c1ccc(CCNC(=O)C2(S(=O)(=O)c3ccc(Cl)cc3)CC2)cc1	12.9%
Cc1nc(NS(=O)(=O)c2ccccc2)sc1C(=O)NN	11.8%

Compound	hERG current change (%, negative = inhibition) at 1uM
COc1cccc(C(NC(C)=O)c2ccc3cccnc3c2O)c1 (centres unmarked)	15.7%
C/C(=N/NC(=O)C1CC1(c1ccccc1)c1ccccc1)c1ccco1 (centres unmarked)	10.7%
Cc1[nH]n(-c2ccccc2)c(=O)c1/C=N/c1nn[nH]n1	9.66%
Cc1csc(=O)n1CCC(=O)OCC(=O)c1ccc(Br)cc1	6.19%
COc1ccc(C(C)NC(=O)CCc2ccccc2)cc1 (centres unmarked)	11.6%
CC(=O)c1c(C)[nH]c(C(=O)CN2CCN(S(=O)(=O)c3ccccc3)CC2)c1C	13.1%
Cc1ccc(C(=O)N(CN2CCCC2=O)c2ccccc2)cc1C	10.7%
CCC(=O)Nc1nnc(-c2ccc(Cl)s2)o1	15.9%
Cc1cccc(NC(=O)CNC(=O)c2ccc(-n3cncn3)c([N+](=O)[O-])c2)c1C	-9.45%
COCCCNC(=O)CCc1nc(-c2ccccc2)no1	8.55%
Cc1ccc(Cn2c(CCNc3nc(-c4ccc(C)cc4)cs3)nc3cc(C(=O)NCCCO)ccc32)cc1	9.5%
O=C(NCc1ccccc1C(F)(F)F)C12CN(Cc3ccccc3)CC1C(c1ccc([N+](=O)[O-])cc1)=NO2 (centres unmarked)	5.46%
CCCCCc1nc2ccccc2c(=O)n1N	13.4%
NC(=O)C1CCN(C(=O)Cc2ccc([N+](=O)[O-])cc2)CC1	4.39%
O=C1NC(=O)N(c2ccccc2F)C(=O)/C1=C/c1cn(CC(=O)N2CCOCC2)c2ccccc12	8.85%
Cc1ccccc1NS(=O)(=O)c1ccc(C(=O)N2CCCCCCC2)cc1	-3.77%
S=c1nc(-c2sccc2OCc2ccc(Cl)cc2Cl)[nH][nH]1	15.3%
COc1ccc2cc(CCC(C)=O)ccc2c1	15.3%
Cc1ccc(N)c(C(=O)c2ccccc2)c1	-8.11%
CC(C)CSc1ncc(-c2cccc(C(F)(F)F)c2)cn1	-6.24%
COc1ccc2cc(C(=O)Nc3ccc(Cl)cc3)sc(=O)c2c1OC	12.7%
Cc1nc2c(C)cccc2cc1C(=O)N/N=C/c1ccc(C(=O)O)cc1	9.91%
N#Cc1c(-c2ccccc2)[nH]c(=S)[nH]c1=O	5.12%

Compound	hERG current change (%, negative = inhibition) at 1uM
O=C(N/N=C/c1ccc([N+](=O)[O-])o1)c1cc(-c2cccc(Br)c2)nc2ccccc12	4.42%
CC(=O)n1nc(-c2cccnc2)nc1NCc1cccs1	11%
CC(C)C(OC(=O)CCC(=O)Nc1nccs1)C(=O)NC1CCCCC1 (centres unmarked)	17.2%
COc1ccc(S(=O)(=O)N2CCCCC2)cc1NC(=O)CN(C)C1CCCCC1	4.72%
COc1ccccc1/C=C1\SC(N2CCC(C)CC2)=NC1=O	13.3%
Cc1c(NC2=NC3(CCCCC3)Cc3ccccc32)c(=O)n(C)n1-c1ccccc1	0.156%
COc1cccc(C(=O)Nc2cc(NC(=O)c3cccs3)ccc2C)c1OC	1.91%
CCC(CC)NC(=O)c1ccc2nc[nH]c2c1	11%
CC(C)Sc1n[nH]c(=O)n1-c1ccccc1	9%
O=C(O)CC1(c2ccccc2)C(=O)c2ccccc2C1=O	13.1%
CCCCCC1CCC(C(=O)NCCN2CCOCC2)CC1 (centres unmarked)	7.07%
CCCCCn1c(CN2CCN(CCO)CC2)nc2c1c(=O)n(C)c(=O)n2C	7.46%
COc1ccc(S(=O)(=O)N2Cc3ccccc3CC2C(=O)Nc2nccs2)cc1 (centres unmarked)	-7.54%
CCOC(=O)N1CCN(C(=O)CS(=O)Cc2nc(-c3ccc(C)cc3)oc2C)CC1 (centres unmarked)	11.8%
COc1ccc2nc(SCC(=O)NC3(C#N)CCCCC3)[nH]c2c1	12.9%
CCOc1ccccc1NC(=O)C1CCN(C(=O)C2CC(=O)N(c3ccc(C)cc3)C2)CC1 (centres unmarked)	10.3%
O=C1CN(C(=O)c2ccccc2F)C(c2ccccc2)c2cc(Cl)ccc2N1 (centres unmarked)	-9.44%
CC1CCN(c2nncc3ccccc23)CC1	7.52%
CN(C)c1ccc([N+](=O)[O-])cc1C(=O)NCC(c1ccco1)N(C)C (centres unmarked)	14.8%
Cc1ccc(C(=O)N/N=C/c2cccc3ccccc23)cn1	12.8%
Cl.O=C(CCN1CCC(c2ccccc2)C1)c1cccs1 (centres unmarked)	-13.5%
CC(/C=C/c1ccc2c(c1)OCO2)=N/NC(=O)c1cccnc1	1.59%
COc1ccc(CNc2cc(C)ccn2)cc1	9.04%

Compound	hERG current change (%, negative = inhibition) at 1uM
Cc1ccc(CNC(=O)[C@H](C)N2C(=O)N3CCc4c([nH]c5ccccc45)[C@@]3(C)C2=O)cc1	11.3%
O=C(CSc1ccccc1C(=O)O)NCc1ccco1	10.5%
O=C(Nc1ccccc1C(F)(F)F)N1CCN(c2ccccn2)CC1	7.11%
O=C(Cc1ccccc1)Nc1cc(Cl)ccc1Sc1ccccc1	10.8%
Cc1nc2ccccc2c(=O)n1NC(=O)c1ccccc1[N+](=O)[O-]	8%
COc1ccc(NC2c3ccccc3C(=O)N2c2ccccn2)cc1Cl (centres unmarked)	0.441%
CCS(=O)(=O)Nc1ccc(C2=NN(C(=O)c3ccco3)C(c3ccco3)C2)cc1 (centres unmarked)	-3.36%
COc1ccc2nc(N3CCCCC3)c(C#N)cc2c1	22.6%
Cc1ccccc1-c1nc(C#N)c(N2CCC(C)CC2)o1	14.8%
O=C(O)c1ccc2ncsc2c1	11.5%
Cn1cc(S(=O)(=O)N2CCN(C(=O)c3ccco3)CC2)c(=O)n(C)c1=O	2.62%
COc1cccc(-n2c(SCC(=O)NCc3cccs3)nc3ccccc3c2=O)c1	11%
CCC12CN3CC(CC)(CN(C1)C31C(=O)N(C)c3ccc(C)cc31)C2=O (centres unmarked)	16%
O=C(COc1ccc(Cl)cc1Cl)Nc1ccc(CN2CCCCC2)cc1	-7.07%
NC(=O)COc1ccc(NC(=O)CC23CC4CC(CC(C4)C2)C3)cc1	17.4%
CCn1cc(CN2CCC(n3nccc3NC(=O)Cc3ccccc3)CC2)c(C)n1	12.4%
Cc1csc(NC(CO)c2nc3ccccc3n2CCOCCO)n1 (centres unmarked)	12.5%
Cn1cc(Br)c(C(=O)NC2C3CC4CC(C3)CC2C4)n1 (centres unmarked)	-6.31%
O=C(NN1C(=O)c2ccccc2NC1c1ccccn1)c1ccc(Br)cc1 (centres unmarked)	-3.16%
O=C(NCCCCCCNC(=O)c1ccccc1O)c1ccccc1O	15.1%
